Laboratory results reported in the supplement of paper PMC4604168 (melanoma cell lines).
The list shows a part of the results. Single values are uncertain, as repeats are few or missing.

Key:
Test in all cases: cell count relative to DMSO control; melanoma cells; higher = more viable cells
Settings in all cases: library dose: low library concentration; 72 h
MZ2-MEL = tested on: MZ2-MEL
MeWo = tested on: MeWo
RPMI7951 = tested on: RPMI7951
RVH-421 = tested on: RVH-421
SkMel28 = tested on: SkMel28
SkMel2 = tested on: SkMel2
SkMel30 = tested on: SkMel30
SkMel5 = tested on: SkMel5
UACC257 = tested on: UACC257
UACC62 = tested on: UACC62
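Further: cell number obtained by counting DAPI-stained nuclei in high-throughput microscope images with image analysis software, screen run in 1,536-well plates.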

| SMILES | cell count (MZ2-MEL) [%] | cell count (MeWo) [%] | cell count (RPMI7951) [%] | cell count (RVH-421) [%] | cell count (SkMel28) [%] | cell count (SkMel2) [%] | cell count (SkMel30) [%] | cell count (SkMel5) [%] | cell count (UACC257) [%] | cell count (UACC62) [%] |
| --- | --- | --- | --- | --- | --- | --- | --- | --- | --- | --- |
| Cc1ccc(NC(=O)c2cccc(N(C)C)c2)cc1NC(=O)c1ccc(O)cc1 + O=C(O)c1ccc(-c2c[nH]c3ncc(-c4ccccc4)cc23)cc1C1CCCC1 [GSK650394] (first compound 2 µM, partner dose 0.16 µM) | 74.4 | 90.5 | 101 | 98.5 | 88 | 96.4 | 91.1 | 104 | 59.9 | 77.4 |
| Cc1ccc(NC(=O)c2cccc(N(C)C)c2)cc1NC(=O)c1ccc(O)cc1 + NC(=O)Nc1cc(-c2cccc(F)c2)sc1C(=O)N[C@H]1CCCNC1 [AZD7762] (first compound 2 µM, partner dose 0.02 µM) | 80.8 | 107 | 73.1 | 118 | 91.4 | 107 | 104 | 123 | 128 | 99.6 |
| NC(=O)c1ccc(N(C(N)=O)c2c(F)cccc2F)nc1-c1ccc(F)cc1F + COC(=O)c1sccc1S(=O)(=O)Nc1ccc(Nc2ccccc2)cc1OC [GSK0660] (first compound 0.4 µM, partner dose 1 µM) | 92.1 | 99.1 | 103 | 96.7 | 103 | 99.7 | 116 | 101 | 86.8 | 84 |
| NC(=O)c1ccc(N(C(N)=O)c2c(F)cccc2F)nc1-c1ccc(F)cc1F + COc1cc2c(Oc3ccc4[nH]c(C)cc4c3F)ncnc2cc1OCCCN1CCCC1 [cediranib] (first compound 0.4 µM, partner dose 0.4 µM) | 103 | 101 | 96.2 | 106 | 111 | 113 | 87.3 | 105 | 90.8 | 91.3 |
| CCCCCCCCc1ccc(CCC(N)(CO)CO)cc1 [fingolimod] + COc1cc(Nc2ncc(F)c(Nc3ccc4c(n3)NC(=O)C(C)(C)O4)n2)cc(OC)c1OC [Tamatinib] (first compound 2 µM, partner dose 0.4 µM) | 93.3 | 87 | 85.8 | 92.3 | 74.9 | 93.7 | 89.1 | 71.2 | 75.4 | 69.7 |
| NC(=O)c1ccc(N(C(N)=O)c2c(F)cccc2F)nc1-c1ccc(F)cc1F + O=C1NC(=O)/C(=C/c2ccc(-c3ccc(F)cc3O)o2)S1 [AS252424] (first compound 0.4 µM, partner dose 1 µM) | 101 | 95.6 | 96.9 | 79.1 | 88.2 | 104 | 110 | 92.9 | 113 | 99.8 |
| CCCCCCCCc1ccc(CCC(N)(CO)CO)cc1 [fingolimod] + CN(C)S(=O)(=O)c1ccc2c(c1)/C(=C/c1cc3c([nH]1)CCCC3)C(=O)N2 [SU6656] (first compound 2 µM, partner dose 0.4 µM) | 100 | 78.6 | 82.2 | 94.2 | 89.7 | 87.7 | 101 | 97.6 | 103 | 86.6 |
| NC(=O)c1ccc(N(C(N)=O)c2c(F)cccc2F)nc1-c1ccc(F)cc1F + O=C(O)C(=O)Nc1sc2c(c1C(=O)O)CCNC2 [TCS401] (first compound 0.4 µM, partner dose 1.66667 µM) | 111 | 105 | 95.1 | 102 | 83.8 | 96.7 | 82.7 | 109 | 94.4 | 104 |
| CC(C)(C)c1cnc(CSc2cnc(NC(=O)C3CCNCC3)s2)o1 + Cc1cc(N2CCOCC2)cc2[nH]c(-c3c(NC[C@@H](O)c4cccc(Cl)c4)cc[nH]c3=O)nc12 [BMS536924] (first compound 0.01 µM, partner dose 0.2 µM) | 103 | 93.9 | 95.5 | 103 | 114 | 90.7 | 81.6 | 98.8 | 134 | 85.5 |
| CCCCCCCCc1ccc(CCC(N)(CO)CO)cc1 [fingolimod] + C=CCn1c(=O)c2cnc(Nc3ccc(N4CCN(C)CC4)cc3)nc2n1-c1cccc(C(C)(C)O)n1 [MK1775] (first compound 2 µM, partner dose 0.02 µM) | 98.2 | 90.8 | 73.5 | 82.4 | 91.5 | 80 | 95.3 | 85.6 | 82.6 | 69.7 |
| NC(=O)c1ccc(N(C(N)=O)c2c(F)cccc2F)nc1-c1ccc(F)cc1F + COc1ccc(COc2ccc(Cc3cnc(N)nc3N)cc2OC)cc1 [GW2580] (first compound 0.4 µM, partner dose 1 µM) | 99.8 | 74.6 | 103 | 85.3 | 83.8 | 106 | 91.4 | 93.2 | 64.2 | 80.7 |
| NC(=O)c1ccc(N(C(N)=O)c2c(F)cccc2F)nc1-c1ccc(F)cc1F + CN(C)S(=O)(=O)c1ccc2c(c1)/C(=C/c1cc3c([nH]1)CCCC3)C(=O)N2 [SU6656] (first compound 0.4 µM, partner dose 0.4 µM) | 98.1 | 83.4 | 82.4 | 102 | 86.2 | 95.1 | 105 | 80.4 | 87.9 | 86 |
